Over roughly 13,000 compounds, “IFI” has its median near 4; the highest 2% begin near 17. This is one part of the list.
Assay: GSK_TCMDC: Inhibition Frequency Index (IFI). The number of non-kinase HTS assays where a compound showed > 50 % inhibition, expressed as a percentage of the number of such assays in which the compound was tested (-0 is zero)
Format: functional

SMILES | IFI [%]
CCN1CCN(c2cc(C)c3cc(NC(=O)c4cccc(C(F)(F)F)c4)ccc3n2)CC1 | 3.38
NC(=O)C1CCN(Cc2cccc(-c3ccc(-c4nc5cc(C(F)(F)F)ccc5[nH]4)cc3)c2)CC1 | 4.85
COc1ccc2nc3ccccc3c(NCCN3CCN(C)CC3)c2c1 | 0.7
Cc1ccc(C(=O)Cn2nc(-c3ccc(C)c(S(=O)(=O)N4CCCCC4)c3)ccc2=O)cc1 | 2.38
N#CC(c1cccc(Cl)c1)c1ccc2c(C(F)(F)F)cc(C(F)(F)F)nc2n1 (configuration not stated) | 6.3
CCOC(=O)c1cccc(NC(=O)Nc2cc(C)nc3ccccc23)c1 | 7.52
COc1ccc2[nH]c(C)cc(=NN=Cc3cccc(Cl)c3)c2c1 | 4.48
COc1c(C2CCN(CCCCNC(=O)c3cc(-c4ccc(Cl)cc4)sc3C)CC2)ccc2c1CCCC2 | 8.33
O=C(CSc1nccn1Cc1ccco1)Nc1cc(C(F)(F)F)ccc1Cl | 8.33
NCC1CCCN1Cc1cccc(-c2ccc(-c3nc4cc(C(F)(F)F)ccc4[nH]3)s2)c1 (configuration not stated) | 10.1
Cc1cccc2[nH]c(-c3cc(-c4cn[nH]c4)cnc3N)nc12 | 1.49
O=C(NCc1ccccc1F)c1ccc(N2CCC(NCc3cccc(-n4cccn4)c3)CC2)cc1 | 2.7
Cn1cnc2c(Nc3ccncc3)nc(-c3ccc(OC(F)(F)F)cc3)nc21 | 5.11
OC(c1ccccc1)C1CN(CCC2CC3CCC2C3)CCC1(O)c1ccccc1 (configuration not stated) | 2.94
CN(C)CCN(C)Cc1nc(-c2ccc3c(Nc4ccc(Oc5ccccc5)cc4)ccnc3c2)cs1 | 9.16
Cc1nc(N)nc(N)c1C#CC1CCCC1 | 5.15
O=S(=O)(Nc1cc2c(cc1O)CCNCC2)c1ccc(-c2ccc(Cl)cc2)cc1 | 8.15
CN1CCCC(CN2CCN(Cc3cccc(-c4ccc(-c5nc6ccccc6[nH]5)s4)c3)CC2)C1 (configuration not stated) | 5.63
Cc1ccccc1Cn1c(CN2CCC(C(=O)NC3CC3)CC2)cc2ccccc21 | 5.26
COc1ccc(OCc2ccccn2)c(C2CCN(CCCCNC(=O)c3ccc(NC(=O)c4ccc(Cl)cc4)cc3)CC2)c1 | 1.54
CCNCCCC(C)Nc1ccnc2cc(Cl)ccc12 (configuration not stated) | -0
Nc1nc(N)c2cc3ccc(OCc4ccccc4)cc3nc2n1 | 7.04
O=C(Nc1cccc(CN2CCCN(Cc3cccc(F)c3)CC2)c1)c1ccc(Cl)c(Cl)c1 | 6
Oc1cc(Nc2ccnc3cc(I)ccc23)c(F)cc1Cl | 5.8
CC(C)CCN1CCC(Oc2ccc(NC(=O)c3ccco3)cc2Cl)CC1 | 4.84
COc1cc(F)c2nccc([C@@H](O)CN3CCC(NCc4ccc5c(n4)NC(=O)CS5)CC3)c2c1 | 3.01
Cc1cccc2nc(-c3ccc(-c4cccc(NC(=O)Nc5ccsc5)c4)cc3)[nH]c12 | 5

Source: ChEMBL document CHEMBL1157539, “Thousands of chemical starting points for antimalarial lead identification” (Nature, 2010)
